Assay results taken from the supplement of paper PMC9334596.
Several values for one entry are separate records, joined by “and”; a condition that tells them apart may be missing. Equal entries are not always repeated. The full ranking holds about 5,300 compounds; the median of “PER2::LUC luminescence relative to vehicle control” is about 0.96, and the highest 2% start at about 1.3. The list shows a part of the results.

Tested on: mPer2Luc MEF
Test: PER2::LUC luminescence relative to vehicle control (fold of vehicle); higher = higher PER2::LUC reporter signal
Details: 10 µM
Procedure, shortened: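 The reported values are PER2::LUC luminescence as fold of vehicle control in mouse embryonic fibroblasts carrying the mPer2Luc reporter. Cells were seeded at ~3000 per well in 384-well plates in DMEM with 10% FBS at 37 °C and 5% CO2, and compounds were added at 10 μM 48 h later. ONE-Glo luminescence was read 24 h and 30 h after treatment.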

Compound | PER2::LUC luminescence (time after treatment 24 h) | PER2::LUC luminescence (time after treatment 30 h)
O=C(Nc1ccccc1-c1cn2c(CN3CCNCC3)csc2n1)c1cnc2ccccc2n1 | 0.205 | 0.413
CCOC(=O)O[C@]1(C(=O)COC(=O)CC)CC[C@H]2[C@@H]3CCC4=CC(=O)C=C[C@]4(C)[C@H]3[C@@H](O)C[C@@]21C | 0.534 | 0.967
CC(C)C[C@H](NC(=O)[C@H](O)[C@H](N)Cc1ccccc1)C(=O)O | 0.99 | 0.902
C=C1c2c(Cl)ccc(O)c2C(=O)C2=C(O)[C@]3(O)C(=O)C(C(N)=O)=C(O)[C@@H](N(C)C)[C@@H]3[C@@H](O)[C@H]12.O=C(O)c1cc(S(=O)(=O)O)ccc1O | 0.648 | 0.771
CNC(=O)c1cc(Oc2ccc(NC(=O)Nc3ccc(Cl)c(C(F)(F)F)c3)c(F)c2)ccn1 | 0.831 and 0.772 | 0.697 and 0.731
C=C[C@@](C)(O)CC[C@H]1C(=C)CC[C@H]2C(C)(C)CCC[C@]12C | 0.946 | 0.911
CC(C)(C)NCC(O)COc1cccc2c1CCC(=O)N2 (stereo unspecified) | 1.07 | 0.822
CC(C)C[C@H](N)C(=O)N[C@H](C(=O)N[C@H](C(=O)N[C@@H](Cc1ccc(O)cc1)C(=O)N1CCC[C@H]1C(=O)N[C@@H](Cc1c[nH]c2ccccc12)C(=O)N[C@H](C(=O)N[C@@H](CCC(N)=O)C(=O)N[C@@H](CCCN=C(N)N)C(=O)O)[C@@H](C)O)C(C)C)C(C)C | 0.942 | 0.916
N#C/C(=C\c1ccc(-c2cc(Cl)ccc2Cl)o1)C(=O)Nc1cccc2ncccc12 | 1.19 | 1.2
O=C(CCc1ccc(O)cc1)c1c(O)cc(O)cc1OC1OC(CO)C(O)C(O)C1O (stereo unspecified) | 1.02 | 0.948
CN(C)CC(=O)Nc1ccc2[nH]c(=O)c3ccccc3c2c1 | 0.918 and 0.897 and 0.804 | 0.852 and 0.813
C/C=C1\C(=O)C[C@H]2[C@@H]3CCC4=CC(=O)CC[C@]4(C)[C@H]3CC[C@]12C | 0.65 | 0.646
CN(C)CCN1C(=O)c2ccccc2N(C)c2ccccc21 | 1.01 | 0.99
COc1ccc(OC)c(C(O)CNC(=O)CN)c1 (stereo unspecified) | 1.09 | 1.07
CC(S)C(=O)NCC(=O)O (stereo unspecified) | 1.24 | 0.776
CNCc1ccc(-c2cc(-c3nc(-c4ccc(S(=O)(=O)C(C)C)cc4)cnc3N)on2)cc1 | 0.478 | 0.513
C=CC(C)(O)CCC1C(=C)CC(OC(C)=O)C2C(C)(C)CCCC12C (stereo unspecified) | 0.989 | 1.01
CN1CCN(CCCN2c3ccccc3Sc3ccc(C(F)(F)F)cc32)CC1 | 0.58 and 0.638 | 0.825 and 0.649
C=CC(=O)Nc1cc2c(Nc3ccc(F)c(Cl)c3)ncnc2cc1OCCCN1CCOCC1 | 0.311 and 0.162 | 0.408 and 0.174
O=C(NCc1ccccc1)c1csc(Nc2ccncn2)n1 | 0.862 | 0.811
COC(=O)C[C@H]1C(C)(C)C2(O)OC34CC2C(=O)[C@]1(C)C3CC[C@]1(C)C4=CC(=O)O[C@H]1c1ccoc1 (stereo partly specified) | 0.882 | 0.884
CC(C)NCC(O)COc1ccccc1-n1cccc1 (stereo unspecified) | 0.777 | 0.737
Cn1c(=O)c2nc(C3CCCC3)[nH]c2n(C)c1=O | 0.89 | 1.13
COc1ccc2cc(-c3cc(-c4cc(Cl)cc(Cl)c4)nn3[C@@H](C)c3ccc(C(=O)NCCC(=O)O)cc3)ccc2c1 | 1.06 | 0.976
OC(CNCC(O)C1CCc2cc(F)ccc2O1)C1CCc2cc(F)ccc2O1 (stereo unspecified) | 0.637 and 0.59 | 0.652 and 0.656
C=CCN1CCc2nc(N)sc2CC1 | 1.01 | 0.887

Compound | PER2::LUC luminescence (time after treatment 24 h) | PER2::LUC luminescence (time after treatment 30 h)
O=C(CCc1ccc(O)cc1)c1c(O)cc(O)cc1O | 1.14 | 1.11
CC[C@H](C)[C@H](N)C1=N[C@H](C(=O)N[C@@H](CC(C)C)C(=O)N[C@H](CCC(=O)O)C(=O)N[C@H](C(=O)N[C@H]2CCCCNC(=O)[C@H](CC(N)=O)NC(=O)[C@@H](CC(=O)O)NC(=O)[C@H](Cc3cnc[nH]3)NC(=O)[C@@H](Cc3ccccc3)NC(=O)[C@H]([C@@H](C)CC)NC(=O)[C@@H](CCCN)NC2=O)[C@@H](C)CC)CS1 | 0.828 | 0.981
N#Cc1cccc(-c2c[nH]c3ncnc(N4CCOCC4)c23)c1 | 1.03 | 1.02
CC(=O)C1=C(O)C=C2Oc3c(C(C)=O)c(O)c(C)c(O)c3[C@]2(C)C1=O | 1.03 | 0.928
O=c1cc(-c2ccc(O)cc2)oc2ccc(O)cc12 | 1.72 | 1.87
CC(=O)NS(=O)(=O)c1ccc(NC(=O)c2ccccc2C(=O)O)cc1 | 0.828 | 1.12
NC(=O)c1cccc2cn(-c3ccc([C@@H]4CCCNC4)cc3)nc12 | 0.753 | 0.775
Cc1c[nH]c2ccccc12 | 0.822 | 0.868
C=CCNC(N)=S | 0.925 | 0.877
CN(C)CCOC(C)(c1ccccc1)c1ccccn1 (stereo unspecified) | 1.1 | 0.831
COc1cccc(N2CCN(C3=Nc4c(F)cccc4[C@H](CC(=O)O)N3c3cc(C(F)(F)F)ccc3OC)CC2)c1 | 0.979 | 0.935
CC(=O)c1ccc2c(c1)N(CCCN(C)C)c1ccccc1S2 | 0.712 | 0.636
COc1cccc(-c2cc(=O)c3ccccc3o2)c1N | 0.951 | 0.985
CCCCCCCCCCCCCCC[C@H](O)[C@H](N)CO (racemic) | 0.939 | 0.88
CC(C)(C#N)c1cc(Cn2cncn2)cc(C(C)(C)C#N)c1 | 0.927 | 0.862
Cc1csc2c(N[C@@H](C)CN3CCN(S(=O)(=O)c4ccc(Cl)c(Cl)c4)CC3)ncnc12 | 0.157 | 0.178
CN(C)CC1CCC2=C(C1=O)C(c1ccc(Cl)c(Cl)c1)C1=C(CCC(CN(C)C)C1=O)O2 (stereo unspecified) | 1.15 | 1.08
C=CC(C1=CC(=O)C(OC)=CC1=O)c1ccc(OC)cc1 (stereo unspecified) | 1.16 | 1.02
COc1cc2nccc(Oc3ccc(NC(=O)Nc4cc(C)on4)c(Cl)c3)c2cc1OC | 0.535 and 0.522 | 0.469 and 0.418
C[C@@H](O)[C@H]1C(=O)N2C(C(=O)O)=C(S[C@@H]3CN[C@H](CNS(N)(=O)=O)C3)[C@H](C)[C@H]12 | 1.02 and 1.15 | 0.926 and 1.05
Oc1c(I)cc(Cl)c2cccnc12 | 0.964 | 1.02
O=C(Nc1ccccc1C(=O)NC1CCCCNC1=O)c1cc2ccccc2s1 (stereo unspecified) | 0.778 | 0.814
Cc1ccc(C2Nc3ccccc3-n3c(-c4ccccc4)c4c(=O)n(C)c(=O)n(C)c4c32)o1 (stereo unspecified) | 0.901 | 0.94
CC(C)OC(=O)N1CCC(Oc2ncnc3c2cnn3-c2ccc(S(C)(=O)=O)cc2F)CC1 | 1.05 | 1.11
Oc1cc(O)c2c(c1)O[C@H](c1cc(O)c(O)c(O)c1)[C@H](O)C2 | 0.951 | 0.915
Nc1ccn([C@H]2CC[C@@H](CO)O2)c(=O)n1 | 0.888 and 0.99 | 1.12 and 0.974

Compound | PER2::LUC luminescence (time after treatment 24 h) | PER2::LUC luminescence (time after treatment 30 h)
CN(C(=O)C(Cl)Cl)c1ccc(OC(=O)c2ccco2)cc1 | 0.818 | 0.788
CCc1cc(Nc2nccc(-c3c(-c4ccc(OC)c(C(=O)Nc5c(F)cccc5F)c4)nc4ccccn34)n2)c(OC)cc1N1CCC(N2CCN(S(C)(=O)=O)CC2)CC1 | 1.01 | 0.958
O=C1c2ccc(O)c(O)c2C(=O)c2c(O)ccc(O)c21 | 0.912 | 0.882
COc1cc(/C=C/C(N)=O)cc(OC)c1OC | 1.06 and 0.932 | 1.07 and 0.886
CN[C@@H](C)C(=O)N[C@H]1CN(C(=O)CC(C)C)CC[C@H]2CC[C@@H](C(=O)NC(c3ccccc3)c3ccccc3)N2C1=O | 1.1 | 1.16
COc1ccccc1N1CCN(CCCCN2C(=O)c3ccccc3C2=O)CC1 | 0.984 and 0.869 | 1.08 and 0.813
CN1[C@@H]2CC[C@H]1C[C@@H](OC(=O)c1c[nH]c3ccccc13)C2 | 0.931 and 0.864 | 0.967 and 0.93
Cc1cccc(C)c1OCC(C)N (stereo unspecified) | 1.07 and 0.923 | 0.872 and 0.857
C/C=C/C(=O)N1C(=O)OC[C@@H]1Cc1ccccc1 | 0.864 | 0.846
COc1ccccc1OCC(O)CO (stereo unspecified) | 0.827 | 0.929
Nc1nc(CC(=O)Nc2ccc(CCNC[C@H](O)c3ccccc3)cc2)cs1 | 0.958 | 0.9
NC[C@@H]1O[C@H](O[C@H]2[C@@H](O)[C@H](O[C@@H]3[C@@H](O)[C@H](N)C[C@H](N)[C@H]3O[C@H]3O[C@H](CO)[C@@H](O)[C@H](O)[C@H]3N)O[C@@H]2CO)[C@H](N)[C@@H](O)[C@@H]1O | 1.12 | 1.13
CC[C@]1(O)C[C@H]2CN(CCc3c([nH]c4ccccc34)[C@@](C(=O)OC)(c3cc4c(cc3OC)N(C=O)[C@H]3[C@@](O)(C(=O)OC)[C@H](OC(C)=O)[C@]5(CC)C=CCN6CC[C@]43[C@@H]65)C2)C1 | 0.347 | 0.366
COc1cc(C)c2c(c1C=O)Oc1c(c(C)c(O)c3c1C(O)OC3=O)OC2=O (stereo unspecified) | 0.967 | 0.95
CC(=O)[C@H]1CC[C@H]2[C@@H]3C=CC4=CC(=O)CC[C@@]4(C)[C@@H]3CC[C@]12C | 1.15 | 1.07
CCOc1ccc(Nc2nc(-c3c(C)nc4ccccn34)cs2)cc1 | 1.07 | 1.02
Clc1ccc(Nc2nc3ccccc3c3nc(C4CCCCC4)[nH]c23)cc1Cl | 0.84 | 0.867
Cc1cc(=O)[nH]c(=S)[nH]1 | 0.733 | 0.882
CC1(C)C2CCC1(C)C(O)C2 (stereo unspecified) | 1.1 | 0.997
Cc1cc(/C=C/C#N)cc(C)c1Nc1ccnc(Nc2ccc(C#N)cc2)n1 | 0.337 | 0.424
C=C1C(=O)[C@]23[C@H](O)[C@H]1CC[C@H]2[C@@]12CO[C@]3(O)[C@@H](O)[C@@H]1C(C)(C)CC[C@@H]2O | 1.21 | 0.749
NC(=O)c1ccc2[nH]ccc2c1 | 1.05 | 0.929
CCCCC[C@H](O)/C=C/C1=C(CCCCCCC(=O)O)C(=O)CC1 | 1.07 | 1.01
CCOc1cc2ncc(C#N)c(Nc3ccc(F)c(Cl)c3)c2cc1NC(=O)/C=C/CN(C)C | 0.424 | 0.146
CC1=CC[C@@]2(C)CC[C@@](O)(C(C)C)[C@@H]2[C@@H](OC(=O)c2ccc(O)cc2)C1 | 1.08 | 1.15
CCCc1c(-c2ccc(O)cc2)nn(-c2ccc(O)cc2)c1-c1ccc(O)cc1 | 1.05 | 0.928
